Test results as given in the BET-seq Pho4 binding data (Le et al. 2018).
The other results are listed elsewhere or left out. Values were computed here from the reads of four pooled replicates and scatter widely.

Biological target: T1, Pho4 (S. cerevisiae) (UniProt P07270)
T1 sequence: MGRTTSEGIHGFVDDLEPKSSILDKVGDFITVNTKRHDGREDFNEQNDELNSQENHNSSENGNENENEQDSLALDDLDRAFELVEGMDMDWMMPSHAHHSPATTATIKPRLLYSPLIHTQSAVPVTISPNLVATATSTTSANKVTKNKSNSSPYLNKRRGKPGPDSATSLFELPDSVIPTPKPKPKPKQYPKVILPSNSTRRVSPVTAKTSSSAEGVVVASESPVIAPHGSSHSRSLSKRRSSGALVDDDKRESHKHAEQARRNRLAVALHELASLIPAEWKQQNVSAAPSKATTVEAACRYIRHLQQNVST
Experiment: relative binding free energy (BET-seq); higher = weaker binding
Conditions: reference: library average

Sequence | relative binding free energy
TTTCTCACGTGTAATT | 0.4 kcal/mol
TTTACCACGTGTAGTG | 0.03 kcal/mol
TAATGCACGTGTCTTT | -0.02 kcal/mol
TGCTGCACGTGGGGAA | -0.25 kcal/mol
CTTTTCACGTGCGATG | 0.31 kcal/mol
ATCGCCACGTGGGGGT | -0.28 kcal/mol
GTGTGCACGTGCGATG | -0.06 kcal/mol
AAAGACACGTGTTTTT | 0.14 kcal/mol
GTAGACACGTGGTGCG | -0.05 kcal/mol
GTAGCCACGTGGTGGT | -0.09 kcal/mol
GATGCCACGTGTGGTT | 0.1 kcal/mol
ATTATCACGTGGGGGT | -0.02 kcal/mol
ATATTCACGTGCGGAG | 0.19 kcal/mol
GTGGTCACGTGGGCGA | 0.02 kcal/mol
GCAATCACGTGGGTGT | 0.07 kcal/mol
AGGGCCACGTGATAGG | 0.15 kcal/mol
GTGGACACGTGGGTCG | -0.01 kcal/mol
TTGGTCACGTGAGACA | 0.29 kcal/mol
GTGGACACGTGGTTTC | 0.03 kcal/mol
GTGGTCACGTGTGTAA | 0.13 kcal/mol
GGGTTCACGTGAAGCG | 0.5 kcal/mol
TAACTCACGTGTATGT | 0.21 kcal/mol
GAGGGCACGTGAGCTG | 0.06 kcal/mol
TGGGCCACGTGGATGA | -0.02 kcal/mol
AATTGCACGTGTTGGA | -0.01 kcal/mol
GGTTTCACGTGCGTCT | 0.31 kcal/mol

Sequence | relative binding free energy
AGTAGCACGTGGGGGT | -0.23 kcal/mol
TGGTGCACGTGGCGTC | -0.1 kcal/mol
TAAATCACGTGTAATG | 0.04 kcal/mol
ATTTTCACGTGTGCGG | 0.35 kcal/mol
CTTTGCACGTGGTAGG | -0.14 kcal/mol
GTGTGCACGTGTGCTA | -0.13 kcal/mol
AATTTCACGTGTAGAT | 0.49 kcal/mol
TTTAACACGTGGTTAC | 0.07 kcal/mol
CAAAACACGTGGGTGG | -0.11 kcal/mol
GGGGACACGTGTTGTG | 0.08 kcal/mol
TTTGTCACGTGTTGGT | 0.17 kcal/mol
TAGTTCACGTGTGGCA | 0.28 kcal/mol
AGGGACACGTGGCGCT | -0.09 kcal/mol
TAGGGCACGTGTGGGG | -0.02 kcal/mol
GGTATCACGTGTCAGT | 0.21 kcal/mol
TGCCGCACGTGGGGTG | -0.33 kcal/mol
TTGTGCACGTGTAGCT | -0.08 kcal/mol
TAATTCACGTGTGATA | 0.3 kcal/mol
CTGTTCACGTGCTGGG | 0.17 kcal/mol
TTGGACACGTGCTTGT | -0.01 kcal/mol
ATTTGCACGTGTCGAA | 0.02 kcal/mol
GAGTACACGTGTTATG | 0.06 kcal/mol
ATTGGCACGTGGAGAG | -0.19 kcal/mol
CGTGGCACGTGGCAGT | -0.18 kcal/mol
ACGGACACGTGAGTTT | 0.31 kcal/mol
TCGTTCACGTGTCGTG | 0.22 kcal/mol

Sequence | relative binding free energy
ATTTTCACGTGTGTGG | 0.3 kcal/mol
GTTGGCACGTGAAAAT | 0.16 kcal/mol
TTATACACGTGGCGTC | 0.09 kcal/mol
TTGCGCACGTGGCGTT | -0.32 kcal/mol
CAAGACACGTGGGGGA | -0.11 kcal/mol
TGACTCACGTGGTGTT | 0.14 kcal/mol
TTAAGCACGTGGATTG | -0.01 kcal/mol
ATACACACGTGGGTGT | -0.15 kcal/mol
AGGTGCACGTGCAAAT | 0.19 kcal/mol
GGGGGCACGTGGTTTA | -0.03 kcal/mol
GGGTGCACGTGGGGTC | -0.1 kcal/mol
AGGGGCACGTGAGTGA | 0.17 kcal/mol
TAGGGCACGTGGGGCT | -0.31 kcal/mol
GGAGACACGTGCTGGT | -0.13 kcal/mol
GAGGACACGTGTGTTA | 0.15 kcal/mol
GGGAGCACGTGGCCGT | 0.03 kcal/mol
GGTGTCACGTGCGCGA | 0.11 kcal/mol
ACTTTCACGTGGGTCT | 0.2 kcal/mol
GTTAGCACGTGTTTCT | -0.04 kcal/mol
TTAGTCACGTGAAGGC | 0.31 kcal/mol
ATGGCCACGTGAGGAG | 0.1 kcal/mol
ATTCACACGTGGGGAT | -0.01 kcal/mol
CAGGGCACGTGAGGGA | 0.02 kcal/mol
TTGAACACGTGTGTGG | 0 kcal/mol
AGTGACACGTGGGTAC | -0.22 kcal/mol
CATGTCACGTGTGTCT | 0.31 kcal/mol

Sequence | relative binding free energy
CGGTGCACGTGAAGCG | 0.25 kcal/mol
TGTATCACGTGTCGGC | 0.23 kcal/mol
TTAGACACGTGCAGTG | -0.09 kcal/mol
TTGGGCACGTGCGCGG | -0.25 kcal/mol
TCGGACACGTGAGGTA | 0.28 kcal/mol
TGTTACACGTGATAGA | 0.28 kcal/mol
GGCAGCACGTGTAGTA | 0.03 kcal/mol
TTGTGCACGTGGCGAC | -0.02 kcal/mol
GGTGCCACGTGGTTAA | -0.07 kcal/mol
CTTGGCACGTGGTTAA | -0.09 kcal/mol
GTATTCACGTGTCAAG | 0.28 kcal/mol
CGTGTCACGTGAGCGG | 0.25 kcal/mol
TTAGACACGTGATAAT | 0.19 kcal/mol
GAAGACACGTGCGGGT | 0 kcal/mol
AAGTCCACGTGGGTGT | -0.18 kcal/mol
ATGGTCACGTGTTATG | 0.06 kcal/mol
GGCTTCACGTGAGTGT | 0.35 kcal/mol
AGTGACACGTGTGGGG | 0.02 kcal/mol
TTTGACACGTGTGGCT | 0.1 kcal/mol
GGGTTCACGTGTGCGA | 0.36 kcal/mol
GATTACACGTGTGAGG | 0.22 kcal/mol
TTCGGCACGTGAGGGT | 0.04 kcal/mol
TGGTTCACGTGAAATT | 0.38 kcal/mol
ATATTCACGTGCGATG | 0.15 kcal/mol
GTTGTCACGTGGGAAA | 0.27 kcal/mol
TGAGGCACGTGTTTTG | 0 kcal/mol

Sequence | relative binding free energy
TTGTACACGTGGATTC | 0.07 kcal/mol
TGTAACACGTGTCTGT | -0.03 kcal/mol
ATTGACACGTGACGGT | 0.01 kcal/mol
ATAATCACGTGTGGTC | 0.21 kcal/mol
GTCTTCACGTGTAAAT | 0.42 kcal/mol
TTAAGCACGTGTTGAT | -0.02 kcal/mol
TTAAGCACGTGGTCTT | -0.15 kcal/mol
TTCGTCACGTGTTCAG | 0.18 kcal/mol
GTCGGCACGTGTGGAT | -0.02 kcal/mol
GAGTGCACGTGATGGT | 0.2 kcal/mol
GTGAACACGTGGTGGT | 0.01 kcal/mol
TGATCCACGTGATTGG | 0.13 kcal/mol
TTGGGCACGTGGGCCT | -0.25 kcal/mol
TTATGCACGTGGAATT | 0.16 kcal/mol
ATTTACACGTGTTGGG | 0.15 kcal/mol
GGCGGCACGTGGTCGT | 0 kcal/mol
ACAGTCACGTGTAGTT | 0.1 kcal/mol
GTTGTCACGTGATAGC | 0.2 kcal/mol
TGAGGCACGTGGCTAG | -0.2 kcal/mol
TTATGCACGTGTTTGC | -0.04 kcal/mol
TTGCTCACGTGGTTAG | 0.16 kcal/mol
ATGGTCACGTGTGTAT | 0.13 kcal/mol
TTAATCACGTGAATGC | 0.34 kcal/mol
TTGGGCACGTGTGGTT | -0.03 kcal/mol
TAAAACACGTGGGAGG | -0.1 kcal/mol
AAATACACGTGCGGGT | 0.13 kcal/mol

Sequence | relative binding free energy
TAAAGCACGTGTTGAG | -0.08 kcal/mol
AGTCGCACGTGTTGTC | 0.2 kcal/mol
TGAAACACGTGGTCGG | -0.1 kcal/mol
GGGTACACGTGTTTCT | 0.06 kcal/mol
TTTATCACGTGTACGG | 0.1 kcal/mol
GTAGACACGTGATGTT | 0.23 kcal/mol
GAGGTCACGTGGGTTC | 0 kcal/mol
TATTACACGTGAGGGT | 0.31 kcal/mol
GTTTGCACGTGCGGGT | 0.01 kcal/mol
AGCTTCACGTGTGGGT | 0.26 kcal/mol
AGTTTCACGTGCGATG | 0.18 kcal/mol
GGCATCACGTGTTTTG | 0.18 kcal/mol
GGGGACACGTGGGCGA | 0.09 kcal/mol
ACGTGCACGTGTGTGC | -0.08 kcal/mol
GTAATCACGTGCTGGT | 0.18 kcal/mol
TTTATCACGTGTCTAT | 0.13 kcal/mol
TGTGACACGTGACAGT | 0.25 kcal/mol
CAGTGCACGTGGATGG | 0 kcal/mol
ATTCGCACGTGTTGAT | -0.03 kcal/mol
ATAGCCACGTGTGTGG | -0.18 kcal/mol
TAGCTCACGTGGGGGG | 0.01 kcal/mol
AGAATCACGTGGAAAG | 0.48 kcal/mol
AATGTCACGTGAGAGA | 0.28 kcal/mol
TGGGGCACGTGGGGGT | -0.19 kcal/mol
CGAGGCACGTGATGGT | 0.03 kcal/mol
GGCAACACGTGGGCGG | -0.02 kcal/mol

Sequence | relative binding free energy
AATGCCACGTGTGTCG | 0.08 kcal/mol
AGTTTCACGTGGGGAC | 0.06 kcal/mol
TTACTCACGTGTTTAG | 0.25 kcal/mol
TCATTCACGTGGGGAG | 0.08 kcal/mol
GTGTTCACGTGTTACG | 0.11 kcal/mol
TAGTTCACGTGAGGAG | 0.47 kcal/mol
TGGTCCACGTGTTTTT | 0.09 kcal/mol
TGAAGCACGTGGGCAG | -0.18 kcal/mol
CAGGTCACGTGTTATT | 0.02 kcal/mol
TTGCACACGTGTTTAT | 0.09 kcal/mol
CTGGGCACGTGTGAGA | 0.14 kcal/mol
TGGTTCACGTGTTCCG | 0.3 kcal/mol
GGGGACACGTGCGGTT | 0.01 kcal/mol
GGCGGCACGTGGGGAT | -0.08 kcal/mol
TGTTACACGTGTTGTA | 0 kcal/mol
TTTTACACGTGAATGT | 0.41 kcal/mol
AGTGACACGTGGGGTC | -0.19 kcal/mol
GAGTTCACGTGATATT | 0.18 kcal/mol
TTATACACGTGGAAAG | 0.06 kcal/mol
TATGACACGTGGGTAA | -0.1 kcal/mol
GTAAGCACGTGCGGTT | 0.06 kcal/mol
GAGTACACGTGATGTT | 0.25 kcal/mol
TCGGACACGTGGGGGA | -0.14 kcal/mol
ATAGACACGTGAGGCG | 0.23 kcal/mol
AATGTCACGTGGGGAC | 0.09 kcal/mol
TGTGTCACGTGTGGCT | 0.07 kcal/mol

Sequence | relative binding free energy
AGCGTCACGTGTCGTG | -0.05 kcal/mol
AAGGTCACGTGGAGCT | 0.02 kcal/mol
GAGGGCACGTGCGTTA | -0.03 kcal/mol
TGGGTCACGTGCGGAT | 0.1 kcal/mol
AGTATCACGTGGGTTC | 0 kcal/mol
TGGTCCACGTGGTAAT | 0.1 kcal/mol
ATCTTCACGTGGGATG | 0.15 kcal/mol
GGGATCACGTGATTTT | 0.38 kcal/mol
TTGTGCACGTGTCAGT | -0.06 kcal/mol
GGTGACACGTGCGGGA | 0.03 kcal/mol
TTGTGCACGTGTCAAG | 0.04 kcal/mol
ATGTTCACGTGGGAAT | 0.29 kcal/mol
TATACCACGTGGTAGG | -0.12 kcal/mol
GGGTACACGTGTGTCA | 0.09 kcal/mol
CGCTTCACGTGAGTGG | 0.25 kcal/mol
TGTGGCACGTGTGGCG | 0.05 kcal/mol
TCGATCACGTGAGTTA | 0.39 kcal/mol
ATGGTCACGTGCGTTA | 0.12 kcal/mol
GTTGTCACGTGCGGCT | 0.24 kcal/mol
GGGTGCACGTGGGAGC | -0.07 kcal/mol
ATGAGCACGTGGGTTG | -0.15 kcal/mol
ATCGGCACGTGGTAGG | -0.06 kcal/mol
TCTTACACGTGTTTTA | 0.13 kcal/mol
AAAAGCACGTGGTGAT | -0.01 kcal/mol
TAAGGCACGTGGACAG | -0.09 kcal/mol
TTATTCACGTGGAGAG | 0.28 kcal/mol

Sequence | relative binding free energy
CTTACCACGTGTTGGT | 0 kcal/mol
ATGGTCACGTGGGGGC | -0.02 kcal/mol
GAGGCCACGTGGGTGC | -0.1 kcal/mol
GGGCGCACGTGACGGT | 0.1 kcal/mol
GTTTGCACGTGTGTCT | 0.01 kcal/mol
GTATGCACGTGGTTAC | -0.04 kcal/mol
CTGATCACGTGGAGGT | 0.06 kcal/mol
CATAGCACGTGGGGTG | -0.46 kcal/mol
TGTTACACGTGTCATT | 0.13 kcal/mol
AGGAGCACGTGAGATT | 0.15 kcal/mol
GATGGCACGTGGTGGG | -0.02 kcal/mol
GATGGCACGTGTGAGC | 0.08 kcal/mol
AATAGCACGTGCGGTA | 0.02 kcal/mol
AGAATCACGTGAGGGG | 0.38 kcal/mol
TCAATCACGTGAGTGT | 0.23 kcal/mol
GTGCTCACGTGTACGG | 0.25 kcal/mol
TTGAACACGTGATGGA | 0.11 kcal/mol
TAGACCACGTGTTGTG | -0.16 kcal/mol
AGTGTCACGTGACTGC | 0.22 kcal/mol
GGCATCACGTGGATGT | 0.19 kcal/mol
GTCGGCACGTGTTGGA | 0.06 kcal/mol
GAAATCACGTGTATAT | 0.22 kcal/mol
